Experiment [1] concerns the target T1, V5-tagged RSF1-C1 (amino acids 627-1441) (human) (UniProt Q96T23).
T1 sequence: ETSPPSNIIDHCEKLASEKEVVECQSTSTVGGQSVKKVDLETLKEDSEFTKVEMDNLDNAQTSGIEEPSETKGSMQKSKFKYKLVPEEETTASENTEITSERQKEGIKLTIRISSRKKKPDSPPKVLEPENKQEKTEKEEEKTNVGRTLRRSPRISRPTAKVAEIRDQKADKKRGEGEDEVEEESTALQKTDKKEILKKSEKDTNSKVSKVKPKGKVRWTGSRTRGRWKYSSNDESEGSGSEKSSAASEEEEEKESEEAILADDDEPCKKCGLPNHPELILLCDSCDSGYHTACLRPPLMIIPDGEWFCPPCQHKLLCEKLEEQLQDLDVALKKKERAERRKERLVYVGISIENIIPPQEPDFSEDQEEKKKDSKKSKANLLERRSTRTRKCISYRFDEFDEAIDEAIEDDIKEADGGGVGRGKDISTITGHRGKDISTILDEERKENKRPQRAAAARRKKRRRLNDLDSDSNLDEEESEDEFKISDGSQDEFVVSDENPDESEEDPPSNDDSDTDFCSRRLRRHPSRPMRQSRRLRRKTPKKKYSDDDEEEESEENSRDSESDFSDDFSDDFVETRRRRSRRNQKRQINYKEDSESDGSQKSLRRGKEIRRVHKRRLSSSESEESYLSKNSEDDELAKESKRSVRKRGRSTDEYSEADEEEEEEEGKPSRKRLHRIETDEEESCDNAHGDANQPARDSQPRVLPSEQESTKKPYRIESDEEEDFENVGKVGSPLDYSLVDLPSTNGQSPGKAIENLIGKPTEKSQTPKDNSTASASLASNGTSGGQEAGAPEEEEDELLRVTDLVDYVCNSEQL
Briefly: condition: only cells treated with the CDK1 inhibitor Ro3306 for 15 min; co-IP; as a7, cells pre-treated with MG132 for 1 h and with the CDK1 inhibitor Ro3306 for 15 min before harvest; anti-V5 immunoprecipitation.

The target of experiment [2] is T2, endogenous RSF1 (human (endogenous; cell line not stated, all lines of the paper are human)) (UniProt Q96T23).
T2 sequence: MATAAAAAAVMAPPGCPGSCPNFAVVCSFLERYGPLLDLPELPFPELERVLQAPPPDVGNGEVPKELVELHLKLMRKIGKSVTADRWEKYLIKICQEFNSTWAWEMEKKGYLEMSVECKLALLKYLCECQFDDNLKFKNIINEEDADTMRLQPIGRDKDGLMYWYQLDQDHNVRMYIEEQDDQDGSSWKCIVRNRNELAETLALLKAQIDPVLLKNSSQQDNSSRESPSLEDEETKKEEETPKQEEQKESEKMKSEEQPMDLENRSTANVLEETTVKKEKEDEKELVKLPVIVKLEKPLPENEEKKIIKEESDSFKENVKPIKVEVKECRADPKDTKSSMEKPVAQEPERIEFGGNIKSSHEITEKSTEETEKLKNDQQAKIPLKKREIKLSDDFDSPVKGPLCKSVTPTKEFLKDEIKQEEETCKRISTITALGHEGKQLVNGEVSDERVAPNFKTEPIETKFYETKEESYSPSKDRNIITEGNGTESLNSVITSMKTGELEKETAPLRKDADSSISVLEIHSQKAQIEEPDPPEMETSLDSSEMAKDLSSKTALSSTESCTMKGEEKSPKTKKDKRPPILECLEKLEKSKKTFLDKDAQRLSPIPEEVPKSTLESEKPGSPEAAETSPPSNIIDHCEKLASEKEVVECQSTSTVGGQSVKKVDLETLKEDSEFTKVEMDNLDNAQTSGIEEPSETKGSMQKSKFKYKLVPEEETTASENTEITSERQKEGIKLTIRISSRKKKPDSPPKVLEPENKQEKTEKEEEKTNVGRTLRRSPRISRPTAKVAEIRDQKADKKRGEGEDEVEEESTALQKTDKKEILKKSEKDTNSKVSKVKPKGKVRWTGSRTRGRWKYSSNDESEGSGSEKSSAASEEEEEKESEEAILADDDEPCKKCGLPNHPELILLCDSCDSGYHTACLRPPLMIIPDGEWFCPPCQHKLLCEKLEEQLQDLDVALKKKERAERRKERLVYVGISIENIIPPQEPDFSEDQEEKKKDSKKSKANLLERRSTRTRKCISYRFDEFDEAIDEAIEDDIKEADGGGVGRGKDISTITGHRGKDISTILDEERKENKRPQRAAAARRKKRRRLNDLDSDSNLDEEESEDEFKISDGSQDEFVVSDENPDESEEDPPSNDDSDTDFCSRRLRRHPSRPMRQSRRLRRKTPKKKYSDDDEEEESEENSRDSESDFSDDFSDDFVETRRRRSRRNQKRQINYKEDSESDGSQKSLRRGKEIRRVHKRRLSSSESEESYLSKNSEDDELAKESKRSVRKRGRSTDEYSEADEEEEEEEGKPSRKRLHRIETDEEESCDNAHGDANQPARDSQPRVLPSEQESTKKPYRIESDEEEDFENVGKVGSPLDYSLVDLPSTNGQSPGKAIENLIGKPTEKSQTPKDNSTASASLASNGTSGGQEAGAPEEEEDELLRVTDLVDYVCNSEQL
As to the kind of experiment: co-IP; endogenous proteins, mitotic cells; lysis in E1A buffer (50 mM Tris-HCl pH 7.4, 150 mM NaCl, 0.1% NP-40), antibody 12 h at 4 °C, protein A-Sepharose.

These are yes or no findings as the source states them, for the method shown. Binding seen in cells or lysates may run through a third protein. Some binding calls cover weakened binding; strength is not graded here. For some assays here: Tags and fused reporters may be left off the sequences shown.

Consider “endogenous PLK1 (from UniProt P53350 1-603)”, for which the results for the binding result in experiment [1] and in experiment [2] were “no binding” and “binds”, respectively.

The values are drawn from article PMC4918322.
